This is one part of the list.
B1: Q9UKT9 (peptide)
chain: FKCNVCGAKFTQKGNLLRHIKL
B2: Q9UKT9 (peptide)
chain: FRCDICGASFTQKGNLLRHIKL
B3: Q9UKT9 (peptide)
chain: FRCPICGRRFTQKGNLLRHIKL
B4: Q9UKT9 (peptide)
chain: FSCNICGADFTQKGNLLRHIKL
B5: Q9UKT9 (peptide)
chain: FICDICGADFTQKGNLLRHIKL
B6: Q9UKT9 (peptide)
chain: FACNQCGRNFTQKGNLLRHIKL
B7: Q9UKT9 (peptide)
chain: FCCNICGAIFTQKGNLLRHIKL
B8: Q9UKT9 (peptide)
chain: FFCPICGAQFTQKGNLLRHIKL
B9: Q9UKT9 (peptide)
chain: FHCPICGAEFTQKGNLLRHIKL
B10: Q9UKT9 (peptide)
chain: FYCNQCGRWFTQKGNLLRHIKL
B11: Q9UKT9 (peptide)
chain: FTCNVCGAYFTQKGNLLRHIKL
B12: Q9UKT9 (peptide)
chain: FWCPVCGAEFTQKGNLLRHIKL
B13: Q9UKT9 (peptide)
chain: FGCSVCGHAFTQKGNLLRHIKL
B14: Q9UKT9 (peptide)
chain: FKCNQCGREFTQKGNLLRHIKL
B15: Q9UKT9 (peptide)
chain: FFCPICGHLFTQKGNLLRHIKL
B16: Q9UKT9 (peptide)
chain: FFCSVCGHGFTQKGNLLRHIKL
B17: Q9UKT9 (peptide)
chain: FSCEICGRSFTQKGNLLRHIKL
B18: Q9UKT9 (peptide)
chain: FCCPICGANFTQKGNLLRHIKL
B19: Q9UKT9 (peptide)
chain: FSCEICGHTFTQKGNLLRHIKL
B20: Q9UKT9 (peptide)
chain: FQCNVCGAPFTQKGNLLRHIKL
B21: Q9UKT9 (peptide)
chain: LVCEICGFTCTQKGNLLRHIKL
B22: Q9UKT9 (peptide)
chain: FECEQCGAGFTQKGNLLRHIKL
B23: Q9UKT9 (peptide)
chain: FICNQCGHSFTQKGNLLRHIKL
B24: Q9UKT9 (peptide)
chain: FICPICGAGFTQKGNLLRHIKL
B25: Q9UKT9 (peptide)
chain: FNCNQCGAAFTQKGNLLRHIKL
B26: Q9UKT9 (peptide)
chain: LKCNQCGFRCTQKGNLLRHIKL
B27: Q9UKT9 (peptide)
chain: FHCPQCGAAFTQKGNLLRHIKL
B28: Q9UKT9 (peptide)
chain: FNCNICGAGFTQKGNLLRHIKL
B29: Q9UKT9 (peptide)
chain: FACPICGHCFTQKGNLLRHIKL
B30: Q9UKT9 (peptide)
chain: FTCDQCGATFTQKGNLLRHIKL
B31: Q9UKT9 (peptide)
chain: FLCDICGAHFTQKGNLLRHIKL
B32: Q9UKT9 (peptide)
chain: FFCDICGAPFTQKGNLLRHIKL
B33: Q9UKT9 (peptide)
chain: FYCEQCGADFTQKGNLLRHIKL
B34: Q9UKT9 (peptide)
chain: FRCEICGAHFTQKGNLLRHIKL
B35: Q9UKT9 (peptide)
chain: FACDQCGARFTQKGNLLRHIKL
B36: Q9UKT9 (peptide)
chain: FTCNVCGATFTQKGNLLRHIKL
B37: Q9UKT9 (peptide)
chain: FECPICGAIFTQKGNLLRHIKL
B38: Q9UKT9 (peptide)
chain: FVCDQCGADFTQKGNLLRHIKL
B39: Q9UKT9 (peptide)
chain: FECEVCGAAFTQKGNLLRHIKL
B40: Q9UKT9 (peptide)
chain: FSCNVCGAGFTQKGNLLRHIKL
B41: Q9UKT9 (peptide)
chain: FRCDQCGAWFTQKGNLLRHIKL
B42: Q9UKT9 (peptide)
chain: FFCDICGAVFTQKGNLLRHIKL
B43: Q9UKT9 (peptide)
chain: LLCNQCGFKCTQKGNLLRHIKL
B44: Q9UKT9 (peptide)
chain: FFCNQCGRPFTQKGNLLRHIKL
B45: Q9UKT9 (peptide)
chain: FCCEICGARFTQKGNLLRHIKL
B46: Q9UKT9 (peptide)
chain: FYCPICGATFTQKGNLLRHIKL
B47: Q9UKT9 (peptide)
chain: FCCPICGHKFTQKGNLLRHIKL
B48: Q9UKT9 (peptide)
chain: FTCPICGAYFTQKGNLLRHIKL
B49: Q9UKT9 (peptide)
chain: FTCDVCGAWFTQKGNLLRHIKL
B50: Q9UKT9 (peptide)
chain: FNCEICGAHFTQKGNLLRHIKL

These sequences were tested against no compound (DMSO) (assay: log2 fold change of degron read counts, EGFP-low vs EGFP+ sorted cells; higher = lower degron-EGFP level without compound (poor expression or instability)). Conditions: compound: DMSO control; 18 h.
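Also: jurkat cells carrying a lentiviral library of mutant zinc finger degrons fused to EGFP plus mCherry, mCherry+ cells FACS sorted, degron abundance counted by next-generation sequencing.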

Sequence	log2 fold change of degron read counts
B1	-0.608
B2	-1.56
B3	0.0701
B4	-1.25
B5	-2.7
B6	-0.255
B7	0.519
B8	0.271
B9	-0.955
B10	1.25
B11	-0.168
B12	-0.485
B13	0.617
B14	-1.86
B15	0.698
B16	-0.123
B17	-1.21
B18	-0.0675
B19	-1.74
B20	-0.273
B21	-0.764
B22	-0.884
B23	-0.591
B24	-0.334
B25	-1.09

Sequence	log2 fold change of degron read counts
B26	0.654
B27	-0.59
B28	-0.743
B29	-0.321
B30	-1.85
B31	-1.47
B32	-0.224
B33	-1.72
B34	-0.32
B35	-1.18
B36	-1.01
B37	-0.373
B38	-2.81
B39	-1.59
B40	-0.975
B41	-0.158
B42	-0.00247
B43	0.51
B44	0.75
B45	-1.55
B46	0.381
B47	-0.949
B48	0.44
B49	-1.55
B50	-1.7
